Over roughly 33,000 sequences, “E-score (-0.5 to 0.5)” has its median near -0.021; the highest 2% begin near 0.32. The list shows a part of the results.
These sequences were tested against T1, Zap1 (UniProt P47043) (assay: PBM E-score (8-mer binding enrichment) (E-score (-0.5 to 0.5)); higher = stronger / more preferred TF binding; most listed sequences are background and not binding sites). Conditions: protein concentration: 200 nM; construct: GST-full length.
T1 sequence: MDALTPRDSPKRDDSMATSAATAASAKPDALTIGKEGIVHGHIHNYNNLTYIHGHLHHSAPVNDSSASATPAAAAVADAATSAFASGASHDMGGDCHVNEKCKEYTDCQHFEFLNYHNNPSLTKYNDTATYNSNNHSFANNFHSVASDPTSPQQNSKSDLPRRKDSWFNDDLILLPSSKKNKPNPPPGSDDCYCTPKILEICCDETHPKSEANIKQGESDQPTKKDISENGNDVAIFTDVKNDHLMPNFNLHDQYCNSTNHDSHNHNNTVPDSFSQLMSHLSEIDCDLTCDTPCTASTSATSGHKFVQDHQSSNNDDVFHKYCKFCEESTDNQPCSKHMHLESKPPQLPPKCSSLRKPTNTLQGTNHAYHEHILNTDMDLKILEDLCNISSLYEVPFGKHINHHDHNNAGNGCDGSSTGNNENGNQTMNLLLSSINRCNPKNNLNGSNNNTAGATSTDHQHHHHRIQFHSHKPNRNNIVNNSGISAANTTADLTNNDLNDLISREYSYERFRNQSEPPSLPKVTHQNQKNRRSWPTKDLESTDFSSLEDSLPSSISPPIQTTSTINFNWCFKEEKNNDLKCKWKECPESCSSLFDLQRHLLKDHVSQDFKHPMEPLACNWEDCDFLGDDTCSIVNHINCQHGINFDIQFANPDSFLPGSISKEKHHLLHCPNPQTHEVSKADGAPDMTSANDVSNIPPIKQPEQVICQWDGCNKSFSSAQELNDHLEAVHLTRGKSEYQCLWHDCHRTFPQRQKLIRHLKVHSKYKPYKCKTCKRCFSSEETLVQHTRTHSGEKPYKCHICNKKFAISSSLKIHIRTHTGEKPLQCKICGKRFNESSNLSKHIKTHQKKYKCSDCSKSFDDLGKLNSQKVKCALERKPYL
How it was run: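 Universal all-10-mer Agilent arrays, double-stranded by primer extension on fresh or once-stripped slides, were probed with about 100-200 nM GST-tagged yeast transcription factors made by PURExpress. Fluorescent anti-GST detected bound protein, and masliner normalised the scans. E-scores from the Universal PBM Analysis Suite were given to each ungapped eight-base word pooled with its reverse complement.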

Row | Sequence | PBM E-score
1 | GCCACGTA | -0.179
2 | CTATCTGC | -0.25
3 | GGGAAATA | -0.122
4 | CCCGCAGC | -0.228
5 | CAACGGCA | -0.0472
6 | GGCAGTTA | -0.0581
7 | GATCGCAA | 0.121
8 | CATGCTTC | -0.0333
9 | CGCGGTCC | -0.0365
10 | AAATGAAC | 0.0973
11 | GTCATTAA | 0.275
12 | GACAGATA | 0.0964
13 | CAGCTACG | -0.188
14 | GGCCAGAA | 0.00754
15 | CGCTTCGA | -0.261
16 | CAGACGAA | 0.0533
17 | CCGAGATA | 0.117
18 | AAACCGCG | 0.207
19 | CGAGCAAA | -0.192
20 | CCTCGGCA | -0.125
21 | ACAACAAA | 0.158
22 | CTCTGGAA | -0.0494
23 | TCCCGGGA | -0.0942
24 | ACTACTTA | -0.0303
25 | AAGCACCG | -0.118

Row | Sequence | PBM E-score
26 | ATAGGGAT | -0.0647
27 | CACTGGAC | -0.173
28 | GCGCCTGA | -0.0916
29 | CGACGGAA | -0.0518
30 | GCGAGGAC | -0.342
31 | GTCACAAC | 0.18
32 | AGTTCATA | 0.17
33 | CTTGCTTC | -0.123
34 | CCCCTAGA | 0.147
35 | AGAAATCA | 0.0647
36 | CCACACAC | 0.0659
37 | AACGCGCG | 0.113
38 | CTCCGGAC | -0.133
39 | GACGGTCA | 0.0797
40 | GGTCTCGA | 0.0376
41 | ACCGAGGC | 0.0469
42 | GGGATACA | 0.00931
43 | GGCAGCGA | -0.251
44 | ATGGAAAT | -0.012
45 | ATTCGATG | 0.0324
46 | ATCGCTCA | -0.0114
47 | CATAGGTA | 0.116
48 | ACAGCCCA | -0.0608
49 | ATTTGAGC | -0.0529
50 | CGATGCAA | -0.181

Row | Sequence | PBM E-score
51 | CCGACCGG | 0.0475
52 | ATGACATA | -0.00363
53 | AGTGTGCA | -0.0496
54 | CTGGCGGC | 0.00103
55 | ACGTTGAT | 0.0438
56 | CAAGACGA | -0.0833
57 | GTAGCGTA | -0.0662
58 | GAGAACCC | 0.188
59 | ATACTTTG | 0.0158
60 | GGTCGTGA | 0.0142
61 | TCAATGGA | -0.0393
62 | CTCTTATA | 0.0902
63 | AATTATCT | 0.0556
64 | AGATGCAG | -0.1
65 | CAGTGCAC | -0.122
66 | AAAAACAC | 0.293
67 | ACCTGACC | 0.138
68 | GACCCCAC | 0.243
69 | AAGGCTGA | 0.0306
70 | AAATTGTG | -0.0758
71 | AAGAACAC | 0.0512
72 | AGCACAAC | 0.131
73 | CTGGTTTC | 0.124
74 | ACCGAACT | 0.159
75 | CAGCGCAG | -0.221

Row | Sequence | PBM E-score
76 | CACGCTGA | -0.0804
77 | AAGACTCG | -0.202
78 | CAAGACCC | 0.146
79 | CCGCGGCG | 0.0337
80 | GACGCCTA | -0.233
81 | CCAGTGAA | -0.147
82 | TCCCCAAA | 0.042
83 | AATACAGC | -0.0738
84 | CTGATCGA | -0.171
85 | CGATTGTC | -0.114
86 | CAAAAGCC | -0.196
87 | GAAGGTAC | 0.178
88 | AGGTCGTG | 0.353
89 | ACTTCATC | -0.216
90 | AGGCCACA | 0.0371
91 | GTGGCCCA | 0.157
92 | AGGTAATA | 0.263
93 | ATCCCTCG | -0.168
94 | ATTCTTCG | -0.0916
95 | GTTTGGTA | 0.291
96 | CCTCACAG | 0.204
97 | CGTGATAA | 0.122
98 | GAGGCCAC | 0.0991
99 | AGTTCACC | 0.0548
100 | CTGCATAA | 0.0747

Row | Sequence | PBM E-score
101 | AAAGCCTT | -0.092
102 | CAATGATA | 0.0803
103 | CTCATACC | 0.0957
104 | GATTGGGA | -0.146
105 | GATGTCGC | -0.221
106 | CGCTAGTA | 0.0755
107 | CTGGTGGC | -0.188
108 | ACTTCTTG | 0.00157
109 | AATCTCAG | -0.183
110 | GCTTCACA | -0.0875
111 | ATTATGAA | 0.14
112 | AGTCGCAT | -0.187
113 | GCTCAAAC | -0.0646
114 | GCGAGCAC | -0.175
115 | GTGTTCGA | -0.0237
116 | CGTTTTCA | 0.12
117 | ATAAAATA | 0.155
118 | CCGCCCCG | 0.341
119 | AAACGTCC | -0.106
120 | ACGATGCG | -0.223
121 | AAGTAGAT | -0.0639
122 | CGCTCACG | -0.0384
123 | AACGTACG | -0.213
124 | ACGTGAAT | -0.0698
125 | ACTGCCTG | -0.197

Row | Sequence | PBM E-score
126 | CGTCTACC | 0.136
127 | GCGGCTAC | 0.162
128 | GTTCCGCA | -0.00016
129 | AGGTGGAC | -0.283
130 | GAACGGTA | 0.121
131 | CCAGTACA | 0.0202
132 | AATTGGCA | -0.224
133 | AGGGGTTC | 0.173
134 | ATCTTGAC | -0.0181
135 | GGTCCAGA | -0.0479
136 | CGTGAATC | 0.00746
137 | AATCAAAA | 0.0827
138 | CCGCGCAC | 0.0105
139 | ACGTAGTC | -0.166
140 | CCCGCCGG | 0.0616
141 | CAATTAAC | 0.143
142 | GAGGCAGA | -0.214
143 | ACGCAGCC | -0.18
144 | AAAAGCCG | 0.0156
145 | AAATTAGT | 0.134
146 | CCAGTGCC | -0.21
147 | ATTTTGCA | -0.0355
148 | GACCGGCC | -0.007
149 | AGCCGTAT | -0.00761
150 | CGGGAAAA | 0.0146

Row | Sequence | PBM E-score
151 | CCTATAAA | -0.13
152 | GCCGGCGA | -0.292
153 | GACAACAA | 0.0759
154 | AATTTTCC | 0.108
155 | GAGTGCAC | -0.136
156 | AGTGAAGA | -0.283
157 | AGAGATAT | -0.153
158 | AGCGGAAG | -0.261
159 | AGCCATGA | -0.0626
160 | AACATTTA | 0.143
161 | GGGAGCCC | -0.138
162 | AAAGAACA | 0.223
163 | CTGTTGTA | 0.095
164 | TAACTTCA | 0.19
165 | CAGATTAG | -0.13
166 | TAGACACA | -0.096
167 | AGTTGTCA | 0.197
168 | TCTATCCA | -0.102
169 | ACTTATCA | -0.124
170 | ATAAGGGG | -0.0173
171 | TAATGCCA | -0.0133
172 | GCCTCAAC | 0.0422
